Test results from ChEMBL document CHEMBL1157539, “Thousands of chemical starting points for antimalarial lead identification” (Nature, 2010).
Over roughly 13,000 compounds, “IFI” has its median near 4; the highest 2% begin near 17. Some of the results follow.

Experiment: GSK_TCMDC: Inhibition Frequency Index (IFI). The number of non-kinase HTS assays where a compound showed > 50 % inhibition, expressed as a percentage of the number of such assays in which the compound was tested (-0 is zero)
Assay type: functional

Row | Compound | IFI [%]
1 | O=C(Nc1ccc(Br)cc1)N(CCN1CCOCC1)CC(O)COCc1ccc(Cl)c(Cl)c1 (stereo unspecified) | 2.14
2 | CCCOC(=O)C1=C(C)NC2=C(C(=O)CC(c3ccc(OC)c(OC)c3)C2)C1c1cccc(O)c1 (stereo unspecified) | 0.74
3 | FC(F)(F)c1ccc2[nH]c(-c3ccc(-c4cccc(CNCc5cnn(-c6ccccc6)n5)c4)cc3)nc2c1 | 5
4 | CCN(CC)CCN(Cc1ccc(-c2ccc(C(F)(F)F)cc2)cc1)C(=O)Cn1c(CCc2cccc(F)c2F)nc(=O)c2ccccc21 | 8.39
5 | CC1CN(c2cnn(Cc3cccc(NC(=O)Nc4ccc(-c5ccccc5)cc4)c3)c(=O)c2Cl)CC(C)N1 (stereo unspecified) | 5.63
6 | O=C(Nc1ccc(F)c(C(F)(F)F)c1)NC1CCN(CCCCCNC(=O)C2CC2c2ccc(Cl)c(Cl)c2)CC1 (stereo unspecified) | 18.5
7 | NCCNc1ccc([N+](=O)[O-])cc1C(=O)Nc1cccc(C(F)(F)F)c1 | 1.45
8 | O=C(Nc1cccc(-c2csc(-c3nc4ccccc4[nH]3)c2)c1)c1ccncc1 | 5.5
9 | COc1cc(C2Nc3ccc4ccccc4c3C3=C2C(=O)CC(C)(C)C3)ccc1Oc1ccc([N+](=O)[O-])cc1C#N (stereo unspecified) | 1.48
10 | CCN(CC)CCCC(C)N=c1cc(C=Cc2ccccc2Cl)[nH]c2cc(Cl)ccc12 (stereo unspecified) | 0.7
11 | CCC(C)NS(=O)(=O)c1ccc2nc(Nc3ccc(C)cc3)n([C@H](C)C(C)(C)C)c2c1 (stereo partly specified) | 5.11
12 | O=C(NCCCCN1CCC(c2ccc3c(c2OCC(O)c2ccc(Cl)cc2)CCCC3)CC1)c1ccc(-c2ccc(C(F)(F)F)cc2)cc1 (stereo unspecified) | 9.65
13 | c1ccc(N2CCN(c3cc(-c4cccnc4)nc(-c4ccncc4)n3)CC2)nc1 | 1.06
14 | O=C(CSc1nc(-c2ccccc2Cl)ns1)Nc1ccc2c(c1)OCO2 | 0.81
15 | C=CCOC(=O)N1CCC(CNCc2cccc(-c3ccc(-c4nc5cccc(C)c5[nH]4)cc3)c2)C1 (stereo unspecified) | 5.94
16 | c1ccc2c(C3CCN(CCCCOc4ccc5c(c4)CCN(C4CCC4)CC5)CC3)c[nH]c2c1 | 14.6
17 | Cc1cc(F)ccc1Nc1nc(N(C)c2ccccc2)c2cccc(O)c2n1 | 9.79
18 | COc1ccc(CC2(c3ccc(F)cc3)N=C(N)N(CCCc3cccnc3)C2=O)cc1 (stereo unspecified) | 3.33
19 | Cc1c(F)cc(C(=O)NC2CC2)cc1-c1ccc2c(cnn2S(=O)(=O)c2ccc(C#N)cc2)c1 | 7.41

Row | Compound | IFI [%]
20 | CC1CCN(Cc2c(O)ccc3c(O)c(-c4nc5ccccc5s4)c(=N)oc23)CC1 | 1.82
21 | O=C(NCc1ccccc1)Nc1cccc(-c2cccc(-c3nc4cc(C(F)(F)F)ccc4[nH]3)c2)c1 | 5
22 | Cc1ccc(Nc2nccc(NCC(O)c3cccc(C)c3)n2)cc1 (stereo unspecified) | 18.4
23 | O=C1C(c2ccccc2)=C(Nc2cc(Cl)cc(Cl)c2)c2ccccc21 | 4.44
24 | CC(=O)c1ccc(-n2ccnc2)cc1 | 0.73
25 | Cc1cc(N[C@@H](Cc2ccccc2)C(=O)NCc2cccc(F)c2)nc(NCc2ccccc2C)n1 | 4.88
26 | Cc1nnc(Sc2ncnc3scc(-c4ccc(F)cc4)c23)s1 | 7.25
27 | CCN(CC)CCCN(CCCN(CC)CC)c1cc(C)nc(Nc2ccc(Br)cc2)n1 | 6.15
28 | CCN(CCCN1CCCCC1)c1cc(C)nc(Nc2ccc(C)c(Cl)c2)n1 | 5.13
29 | COc1cc(/C=N/Nc2nc(Nc3ccccc3)nc(Nc3ccccc3)n2)ccc1OCc1ccccc1[N+](=O)[O-] | -0
30 | Fc1ccc2[nH]c(-c3cccc(-c4ccc(CNCC5CCCO5)cc4)c3)nc2c1 (stereo unspecified) | 5.88
31 | CCOc1cc(C)c(C2CCN(CCCCNC(=O)c3ccc(NC(=O)c4ccc(Cl)cc4)cc3)CC2)cc1C | 4.55
32 | CC(=O)Nc1ccc(CN2CCC(NC(=O)c3ccc(-c4cccc(OC(C)C)c4)s3)CC2)cc1 | 5.26
33 | CCOC(=O)c1ccc(NC(=O)N[C@@H](Cc2ccccc2)C(=O)NC2CCN(Cc3ccc(OCCCN(C)C)cc3)C2)cc1 (stereo partly specified) | 2.94
34 | Cn1nc(-c2ccc(CN[C@@H]3CCc4ccc(O)cc43)cc2)c2cnc(NC3CCCC3)nc21 | 7.69
35 | COc1ccc(NC(=O)CCNc2cc(C)nc(NCc3ccccc3C)n2)cc1 | 4.88
36 | CCOC(=O)CCCc1cc(NC2CCN(C)CC2)nc(Nc2ccc(C)cc2)n1 | 2.9
37 | Cc1cccc2[nH]cc(C3CCN(CCC4CCN(C(=O)/C=C/c5ccc(Cl)c(Cl)c5)CC4)CC3)c12 | 2.88
38 | Cc1cccc2nc(-c3cccc(-c4ccc(NC(=O)Nc5ccc(Cl)c(Cl)c5)cc4)c3)[nH]c12 | 7.07

Row | Compound | IFI [%]
39 | CCOc1ccc2[nH]c(C)cc(=NN=Cc3cccnc3)c2c1 | 5.07
40 | COc1cccc(C2=CC(C)(C)Oc3cc(OCCN(C)C)ccc32)c1 | 0
41 | CC(C)(C)n1nnnc1C(c1cccnc1)N(Cc1ccccc1)Cc1ccc(Cl)cc1 (stereo unspecified) | 2.46
42 | CCNC(=O)Nc1ccc(N(C)c2ccnc(Nc3ccc(CS(C)(=O)=O)cc3)n2)cc1 | -0
43 | Clc1cnc2ccc3c(c2c1CCN1CCC(NCc2cc4c(cn2)OCCO4)CC1)OCCO3 | 3.6
44 | CN(C)CCCN1C(=O)c2[nH]nc(-c3ccc(Cl)cc3O)c2C1c1ccc(Cl)cc1 (stereo unspecified) | 13.7
45 | Clc1ccc(-c2nc(-c3ccncc3)c[nH]2)cc1Cl | 3.33
46 | CC(C)COc1ccc(Cl)cc1Cc1ccc(-c2nc3c(F)cccc3[nH]2)o1 | 15.5
47 | NC(=O)c1ccsc1NC(=O)CNC(c1ccc(F)cc1)c1cccs1 (stereo unspecified) | 3.7
48 | C=CCn1c(SCc2c(C)noc2C)nc2scc(-c3cccs3)c2c1=O | 3.92
49 | CNC(=O)c1ccc(/C=C/C(=O)N2CCc3ccc(-c4ccccc4)cc3C2c2cccc(C(F)(F)F)c2)cc1 (stereo unspecified) | 1.53
50 | O=C(/C=C/c1ccc(Cl)c(Cl)c1)NCC1CCN(Cc2ccc(O)cc2)CC1 | 2.01
51 | COc1ccc2nccc([C@@H](O)CN3CCC(NC(=O)C(c4cc5ccccc5o4)N4CCN(c5ccc(F)cc5)CC4)CC3)c2c1 (stereo partly specified) | 4.17
52 | CCOc1cc(C(C)C)ccc1N1CCN(CCCCNC(=O)c2ccc(NC(=O)c3ccc(Cl)cc3)cc2)CC1 | 2.59
53 | CNCCNCc1ccc(-c2ccc(-c3nc4cc(F)ccc4[nH]3)s2)cc1 | 7.92
54 | O=S(=O)(c1cccc2cccnc12)N1CCN(C2CCCCC2)CC1 | -0
55 | Cc1c(F)cc(C(=O)NC2CC2)cc1-c1ccc2c(cnn2S(=O)(=O)c2ccc(Cl)s2)c1 | 2.24
56 | CCCCOc1ccc(-c2nc3ccccc3[nH]2)cc1 | 2.14
